We go through 8 molecules from article PMC5540273 (PLoS ONE, 2017).

Some test systems named below: PIM2; PIM3; PIP5K1A; PIP5K1C; PIP5K2B; PKMYT1; PKN1; PKN2; PLK1; PLK2; PLK3; PLK4; PRKCD; PRKCE; PRKCH; PRKCI; PRKCQ.
Settings in all cases: concentration: 1 μM,replicates: in singlicate; n = 1
The test system of a further experiment is T1, PIP5K2C.
T1 construct: gene PIP4K2C

A further experiment has as its system T2, PKAC-alpha.
T2 construct: gene PRKACA

In another experiment the test system is T3, PKAC-beta.
T3 construct: gene PRKACB

For some of these results: What follows is the remainder of the data, with few or none of the strong results. The list shows a part of the results, in another mix than the full data.
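Also: KINOMEscan kinase panel screen.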

Take `O=C1NC(=O)C(c2ccccc2Cl)=C1Nc1cccc(C(=O)O)c1` [SB-390526]: the “%Inh” value in the experiment with PIM2 is 0%; with PIM3, 1%; with PIP5K1A, 56%; with PIP5K1C, 59%; in the experiment on PIP5K2B, 0%; in the experiment on PIP5K2C, 38%. Besides, the “%Inh” value was 0% with PKAC-alpha; 0% in the experiment on PKAC-beta; 14% in the experiment with PKMYT1; 0% in the experiment on PKN1; 0% with PKN2; 6% with PLK1. Also, the “%Inh” value was 0% in the experiment on PLK2; 0% with PLK3; 7% with PLK4; 0% in the experiment with PRKCD; 2% in the experiment with PRKCE; 0% with PRKCH. For the same molecule, the “%Inh” value in the experiment on PRKCI and in the experiment on PRKCQ was 0% each time.
Take `O=C1NC(=O)C(c2ccc(Cl)cc2)=C1Nc1cccc(O)c1` [SB-333613]: the “%Inh” value is 13% in the experiment on PIM2; 19% in the experiment on PIM3; 5% in the experiment on PIP5K1A; 49% in the experiment with PIP5K1C; 0% in the experiment with PIP5K2B; 42% in the experiment on PIP5K2C. The “%Inh” value in the experiment on PKAC-alpha is 22%; in the experiment on PKAC-beta, 0%; in the experiment on PKMYT1 it was 3%; in the experiment on PKN1, 12%; in the experiment with PKN2 it was 9%; in the experiment with PLK1, 35%. The “%Inh” value in the experiment on PLK2 worked out at 28%; in the experiment with PLK3 it was 11%; with PLK4, 34%; with PRKCD it was 8%; in the experiment with PRKCE it was 41%; with PRKCH, 0%. Also, the “%Inh” value in the experiment on PRKCI was found to be 28%; in the experiment with PRKCQ, 0%.
As to `O=C1NC(=O)c2c1c(-c1ccccc1)cc1[nH]c3ccc(O)cc3c21`, the “%Inh” value was 84% in the experiment with PIM2; 91% with PIM3; 76% with PIP5K1A; 34% in the experiment with PIP5K1C; 0% in the experiment with PIP5K2B; 7% with PIP5K2C. The “%Inh” value in the experiment on PKAC-alpha is 0%; with PKAC-beta it was 20%; in the experiment on PKMYT1 it was 43%; in the experiment on PKN1, 75%; with PKN2, 100%; in the experiment on PLK1 it was 76%. Moreover, the “%Inh” value was determined as 97.2% in the experiment on PLK2; 89% in the experiment on PLK3; 53% in the experiment with PLK4; 61% with PRKCD; 5% in the experiment on PRKCE; 34% in the experiment on PRKCH. The “%Inh” value is recorded as 0% in the experiment on PRKCI and 72% with PRKCQ.
Regarding `O=C1NC(=O)C(c2ccccc2Cl)=C1Nc1ccccc1` [SB-376715], the “%Inh” value in the experiment with PIM2 came out at 0%; in the experiment with PIM3 it was 3%; with PIP5K1A, 3%; with PIP5K1C, 37%; in the experiment with PIP5K2B it was 11%; in the experiment on PIP5K2C, 9%. Also, the “%Inh” value in the experiment on PKAC-alpha is reported as 8%; in the experiment with PKAC-beta it was 0%; with PKMYT1 it was 7%; with PKN1, 47%; in the experiment with PKN2 it was 21%; in the experiment on PLK1, 6%. The “%Inh” value with PLK2 is recorded as 0%; with PLK3 it was 0%; in the experiment on PLK4 it was 19%; in the experiment on PRKCD it was 0%; with PRKCE it was 24%; with PRKCH, 0%. For the same molecule, the “%Inh” value in the experiment on PRKCI is 23%; with PRKCQ, 5%.
On to `COc1cccc(C2=C(Nc3ccc(SC)cc3)C(=O)NC2=O)c1` [SB-331032], for which the “%Inh” value with PIM2 turned out to be 0%; with PIM3, 0%; in the experiment with PIP5K1A, 23%; in the experiment with PIP5K1C, 4%; with PIP5K2B it was 4%; with PIP5K2C, 45%. The “%Inh” value with PKAC-alpha was 0%; with PKAC-beta it was 1%; in the experiment with PKMYT1 it was 0%; in the experiment with PKN1, 0%; in the experiment with PKN2, 0%; with PLK1, 24%. In addition, the “%Inh” value in the experiment with PLK2 was found to be 27%; in the experiment on PLK3, 12%; with PLK4, 19%; with PRKCD it was 12%; with PRKCE, 44%; with PRKCH, 0%. In addition, the “%Inh” value was 4% with PRKCI and 0% in the experiment with PRKCQ.
As for `O=C1NC(=O)C(c2ccc(Cl)cc2)=C1Nc1ccc(O)c(Cl)c1` [SB-405367], the “%Inh” value in the experiment on PIM2 stood at 16%; in the experiment on PIM3 it was 9%; in the experiment on PIP5K1A it was 8%; with PIP5K1C it was 0%; with PIP5K2B, 1%; in the experiment on PIP5K2C, 0%. The “%Inh” value with PKAC-alpha worked out at 2%; in the experiment on PKAC-beta, 0%; with PKMYT1, 0%; in the experiment on PKN1, 0%; in the experiment on PKN2, 16%; in the experiment with PLK1, 4%. Besides, the “%Inh” value is recorded as 32% with PLK2; 7% in the experiment on PLK3; 2% in the experiment on PLK4; 38% with PRKCD; 0% in the experiment with PRKCE; 8% in the experiment on PRKCH. Further, the “%Inh” value stood at 28% with PRKCI and 0% in the experiment with PRKCQ.
As for `Cc1cc(C)cc(Oc2nccc(-c3c(-c4ccc(F)cc4)ncn3C3CCNCC3)n2)c1.O=C(O)C(F)(F)F.O=C(O)C(F)(F)F.O=C(O)C(F)(F)F` [SB-284851], the “%Inh” value in the experiment with PIM2 is listed as 20%; with PIM3, 0%; in the experiment with PIP5K1A it was 0%; with PIP5K1C, 33%; in the experiment with PIP5K2B, 0%; with PIP5K2C, 19%. The “%Inh” value in the experiment on PKAC-alpha is 12%; with PKAC-beta, 34%; in the experiment on PKMYT1 it was 0%; in the experiment on PKN1 it was 0%; in the experiment on PKN2, 0%; in the experiment on PLK1 it was 14%. Also, the “%Inh” value in the experiment with PLK2, in the experiment with PLK3, in the experiment on PLK4, with PRKCD, in the experiment on PRKCE and in the experiment with PRKCH was 0% throughout. The “%Inh” value in the experiment with PRKCI is on record as 100%; with PRKCQ, 0%.
With `O=C1NC(=O)C(c2ccccc2)=C1Nc1cc(Cl)c(O)c(Cl)c1` [SB-390530], the “%Inh” value in the experiment with PIM2 was 5%; in the experiment with PIM3, 17%; with PIP5K1A, 0%; in the experiment with PIP5K1C it was 100%; with PIP5K2B it was 0%; in the experiment with PIP5K2C it was 0%. For the same molecule, the “%Inh” value in the experiment with PKAC-alpha came out at 0%; with PKAC-beta, 0%; in the experiment on PKMYT1, 0%; with PKN1, 0%; with PKN2, 0%; with PLK1 it was 30%. In addition, the “%Inh” value is given as 0% in the experiment with PLK2; 13% in the experiment on PLK3; 11% with PLK4; 0% in the experiment with PRKCD; 0% in the experiment on PRKCE; 0% with PRKCH. Further, the “%Inh” value in the experiment with PRKCI came to 0%; with PRKCQ it was 40%.
